Laboratory results as given in patent US20220057408A1.

Each substance was assayed against HER2 (UniProt P04626) (assay: IHC on 2+ HER2+ breast cancer tissue; conjugate at 1 µg/mL detected with MsAntiV5 and HRP multimer/DAB).

Question: “HER2/neu (4B5) antibody-V5 peptide conjugate H1K0” was tested. Which IHC Intensity (subjective score of DAB signal strength) did it give?
Answer: 1.75

Question: “HER2/neu (4B5) antibody-V5 peptide conjugate H2K2” was tested. Which IHC Intensity (subjective score of DAB signal strength) did it give?
Answer: 2.25

Question: For “HER2/neu (4B5) antibody-V5 peptide conjugate H3K0”, which IHC Intensity (subjective score of DAB signal strength) is on record?
Answer: 2.25

Question: For “HER2/neu (4B5) antibody-V5 peptide conjugate H4K4”, which IHC Intensity (subjective score of DAB signal strength) is on record?
Answer: 2.25
